Measured values as given in article PMC4336329 (PLoS ONE, 2015).
Out of some 310,000 compounds screened, about 14,000 (4.5%) showed an effect of 50% or more. Effects have a minus sign here. Some of the results follow.

molecular target: human ether-à-go-go-related gene (hERG) potassium channel (human, UniProt Q12809); assay: primary screen, population patch clamp on CHO cells stably expressing hERG
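Also: peak tail current of the secondary pulse compared with the same well before compound.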

Chain of human ether-à-go-go-related gene (hERG) potassium channel (Q12809 whole entry, looked up): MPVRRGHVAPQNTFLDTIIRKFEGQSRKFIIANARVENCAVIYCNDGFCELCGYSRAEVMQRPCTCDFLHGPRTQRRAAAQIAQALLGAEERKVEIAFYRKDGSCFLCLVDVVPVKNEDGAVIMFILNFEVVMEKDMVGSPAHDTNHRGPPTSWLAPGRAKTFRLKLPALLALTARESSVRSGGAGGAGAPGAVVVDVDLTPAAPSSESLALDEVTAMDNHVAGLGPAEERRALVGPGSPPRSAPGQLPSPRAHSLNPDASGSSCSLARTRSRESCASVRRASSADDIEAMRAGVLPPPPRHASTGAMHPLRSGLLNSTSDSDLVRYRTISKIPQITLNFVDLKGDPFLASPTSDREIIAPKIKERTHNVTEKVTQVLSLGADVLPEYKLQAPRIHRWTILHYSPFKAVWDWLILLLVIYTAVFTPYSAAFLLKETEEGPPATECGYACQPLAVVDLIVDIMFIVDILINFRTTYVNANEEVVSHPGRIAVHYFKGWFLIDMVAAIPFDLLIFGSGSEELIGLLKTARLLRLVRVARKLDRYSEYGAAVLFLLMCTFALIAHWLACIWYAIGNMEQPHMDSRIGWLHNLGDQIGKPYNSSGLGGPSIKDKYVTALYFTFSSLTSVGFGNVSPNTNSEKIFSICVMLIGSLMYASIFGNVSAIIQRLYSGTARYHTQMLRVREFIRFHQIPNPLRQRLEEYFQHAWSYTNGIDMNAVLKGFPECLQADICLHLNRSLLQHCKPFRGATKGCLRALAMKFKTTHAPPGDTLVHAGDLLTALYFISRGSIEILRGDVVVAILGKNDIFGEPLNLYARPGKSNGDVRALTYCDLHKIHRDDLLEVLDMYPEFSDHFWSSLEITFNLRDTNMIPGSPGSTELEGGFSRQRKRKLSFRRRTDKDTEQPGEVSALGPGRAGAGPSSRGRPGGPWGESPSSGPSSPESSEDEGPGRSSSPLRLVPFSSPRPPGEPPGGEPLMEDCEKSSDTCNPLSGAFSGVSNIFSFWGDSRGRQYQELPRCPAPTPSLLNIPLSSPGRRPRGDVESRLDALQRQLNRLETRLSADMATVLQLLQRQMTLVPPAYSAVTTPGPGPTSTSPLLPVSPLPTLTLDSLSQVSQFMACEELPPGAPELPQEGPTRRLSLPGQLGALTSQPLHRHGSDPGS

| SMILES | hERG current change (%, negative = inhibition) at 10uM [%] |
| --- | --- |
| O=C(CCC(=O)N1CCCC(Nc2ccccc2)C1)c1ccc(F)cc1 (centres unmarked) | -8.8 |
| COCC(=O)N1CCC(Oc2ccc(C(=O)NCCc3ccncc3)cc2)CC1 | 3.69 |
| O=C(COC(=O)COc1ccc2c(c1)CCC2)Nc1ccccc1 | 0.446 |
| CCNC(=S)Nc1ccc(N2CCCCC2)cc1 | 13.5 |
| N#Cc1c(-c2cccs2)nc(SCC(=O)c2ccc(Br)cc2)[nH]c1=O | 16.3 |
| COc1cc(C(=O)c2nccc3cc(OC)c(OC)cc23)c([N+](=O)[O-])cc1OC | -11.3 |
| O=C(COC(=O)c1cccc(S(=O)(=O)NCc2ccccc2)c1)Nc1ccccc1OC(F)F | 11.5 |
| O=C(COC(=O)c1ccc[nH]c1=O)Nc1ccc2c(c1)OC(F)(F)O2 | 25.8 |
| Oc1oc(-c2ccccc2)nc1/C=N/c1nccs1 | 13.1 |
| Cc1ccc(SCC(=O)OCC(=O)N(CC(C)C)c2c(N)n(Cc3ccccc3)c(=O)[nH]c2=O)c(C)c1 | -13.1 |
| C=CCn1c(CCNC(=O)c2cccs2)nnc1SCC(=O)Nc1cccc(C(C)=O)c1 | 7.23 |
| COc1ccc(NC(=O)Nc2ccc(OC)cc2)cc1 | -7.76 |
| Clc1ccc(-c2ccnc(-n3cccc3)n2)s1 | 30.7 |
| O=C(Nc1ccc(Cl)cc1)C1c2cccc[n+]2CC(=O)N1Cc1ccc2c(c1)OCO2.[I-] (centres unmarked) | -18.9 |
| O=C(c1ccccc1)N(Cc1nc2ccccc2c(=O)[nH]1)C1CCCC1 | 16.5 |
| Cc1ccc(CNC(=O)c2ccc[nH]2)cc1 | -5.08 |
| CCOc1ccc(NC(=O)CCC(=O)c2ccc(F)cc2)cc1 | 11.3 |
| Cc1cc(C)c(S(=O)(=O)N2CCN(C(=O)N3CCOCC3)CC2)c(C)c1 | 5.53 |
| COC(=O)CC#N | 15.4 |

| SMILES | hERG current change (%, negative = inhibition) at 10uM [%] |
| --- | --- |
| O=C(NCCCO)C(=O)c1c(-c2ccccc2)cc2ccccn12 | 8.78 |
| CCn1c(SCC(=O)Nc2ccc(NC(C)=O)cc2)nnc1C1CC1 | 17.8 |
| CCOC(=O)c1c(C)n(C)c2ccc(OC)c([N+](=O)[O-])c12 | 1.98 |
| Cc1ccc(-c2cc(C(=O)Nc3cnn(C45CC6CC(CC(C6)C4)C5)c3)no2)cc1 | 0.347 |
| COc1cccc(/C=N/Nc2ncc(C(F)(F)F)cc2Cl)c1O | 36.1 |
| COC(C/C=C/C(=O)[C@@H](C)OCc1ccccc1)OC | -29.6 |
| CCCc1c(C)nc2c(Br)cccc2c1Cl | 9.59 |
| COC(=O)COn1c(SC(C)C)nc2ccccc2c1=O | -14.1 |
| O=C1NC(NS(=O)(=O)c2ccccc2)(C(F)(F)F)C(=O)N1c1ccc(F)cc1 (centres unmarked) | 8.92 |
| Cn1ncc2c(Nc3ccc4ccccc4c3)ncnc21 | -26.3 |
| O=c1oc(Nc2ccc(F)cc2)nc2ccccc12 | 6.68 |
| O=S(=O)(c1ccc(Br)s1)N1CCN(CCOc2ccccc2)CC1 | -17.3 |
| COc1ccc(-c2c(C#N)c(N)nc3sc(C(=O)c4ccccc4)c(N)c23)cc1 | 9.65 |
| CN(Cc1ccon1)C(=O)C1CCC(=O)N(Cc2ccc(Cl)cc2)C1 (centres unmarked) | -40.9 |
| COc1cccc(C(=O)Nc2cccc(C(=O)N3CCOCC3)c2)c1 | 4.92 |
| Cc1c(NC(=O)C(C)OC(=O)CC2CC3CCC2C3)c(=O)n(-c2ccccc2)n1C (centres unmarked) | -9.36 |
| CCOC(=O)/C(C#N)=C/c1cn(CCC(=O)O)nc1-c1ccc(Cl)cc1 | 26 |
| O=C(OCCOCCN=C1NS(=O)(=O)c2ccccc21)c1ccc(F)cc1 | 4.47 |
| C(=C\c1ccccc1)/CSc1nnc(-c2ccccc2)n1Cc1ccco1 | -74.7 |

| SMILES | hERG current change (%, negative = inhibition) at 10uM [%] |
| --- | --- |
| COc1ccc(OC)c(NC(=O)c2c(NC(=O)CNCc3ccco3)sc3c2CCC3)c1 | 8.51 |
| Cc1ccc(CNc2nc3c([nH]2)c(=O)n(C)c(=O)n3C)cc1 | -1.35 |
| c1ccc2c(c1)nnn2-c1ncnc2sc3c(c12)CCCC3 | -12.2 |
| COc1cc(/C=C/C(=O)OCC(=O)NCc2ccco2)ccc1O | 3.65 |
| O=C(COC(=O)c1cccc(Cl)c1Cl)NC1CCCC1 | 11.4 |
| O=C(CN1CCN(c2ccc([N+](=O)[O-])cc2)CC1)Nc1nccs1 | -65.6 |
| CCOC(=O)C1CCN(C(=O)c2ccc(N(C)S(=O)(=O)c3ccc(OC)cc3)cc2)CC1 | -49.8 |
| COc1cc(CCC(=O)OCC(=O)NCc2ccccc2)cc(OC)c1OC | 13.4 |
| COC(=O)c1sc2ccccc2c1NC(=O)c1ccc(S(=O)(=O)N2CCC(C)CC2)cc1 | -2.62 |
| O=P(C(c1c[nH]c2ccccc12)N1CCOCC1)(N1CCOCC1)N1CCOCC1 (centres unmarked) | -3.87 |
| C=CCN(CC=C)CCOc1cccc(Oc2ccccc2)c1.O=C(O)C(=O)O | 6.57 |
| CCOc1ccccc1N1CCN(C(=O)Nc2ccc(F)c(Cl)c2)CC1 | -16.6 |
| CCc1nn(C(C)C(=O)NCCc2ccccc2)c(=O)c2cc3occc3n12 (centres unmarked) | -31.1 |
| O=C(NCCc1ccc(Cl)cc1)c1ccc(S(=O)(=O)N2CCCC2)cc1 | 0.599 |
| CC(C)(C)C(=O)Cn1nc(Cl)nc1Cl | 7.68 |
| COc1ccc(-c2cc(C3CCN(C(=O)OC(C)(C)C)CC3)[nH]n2)cc1 | -26.4 |
| O=C(Cn1cnc([N+](=O)[O-])n1)N/N=C/c1cc(Cl)ccc1O | 3.28 |
| C#CCOCCOCCOCCNc1nc(N2CCN(C(=O)[C@H](CCCCN)n3cc([C@@H](N)CO)nn3)CC2)nc(N2CCN(C(=O)[C@H](Cc3ccc(O)cc3)n3cc([C@@H](N)CC(C)C)nn3)CC2)n1.Cl | 8.82 |
